We go through 45 compounds from the supplement of paper PMC4723716.

± gives the uncertainty stated by the source. In all, about 9,900 compounds were measured (“viability index relative to DMSO control”: median about 1, lowest 2% from about 0.85 on). The list shows a part of the results.

In this assay the test system is Plasmodium falciparum NF54 stage V gametocytes. Briefly: viability index relative to DMSO control (fraction); higher = less gametocyte killing. As to conditions: 2.5 µM, library set: Broad Institute DOS, incubation time: 72 h. The essentials:
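Stage V gametocytes of P. falciparum NF54 were held in serum-free screening medium at 0.75% gametocytemia and 1.25% hematocrit, 10 µl per well of a 1,536-well plate, and exposed to compound at 2.5 µM for 72 hr at 37°C under low oxygen. A 3 µl mix of 2.5 µM MitoTracker Red CMXRos with 0.13% saponin was then added for one to two hours, after which one field per well was imaged and red particles of 20–70 µm2 were counted. The viability index equals this count divided by the plate mean from wells given solvent alone.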
In the case of `CNC[C@@H]1Oc2c(NS(=O)(=O)c3ccc(Cl)cc3)cccc2C(=O)N([C@H](C)CO)C[C@H]1C`, the viability index is 0.9776 ± 0.0086.
`CC(C)(C)[S@@](=O)N1Cc2cc(C(=O)N[C@H]3CCN(Cc4ccccc4)C3)nc(-c3cccc(-c4cccnc4)c3)c2[C@H]1CCO` came in with a viability index of 1.03 ± 0.04.
`O=C(C[C@H]1C[C@H]2c3cc(NS(=O)(=O)c4ccccc4)ccc3O[C@H]2[C@H](CO)O1)N1CCOCC1` registered a viability index of 0.946 ± 0.0031.
Then `CN(C)C(=O)c1ccc(-c2ccccc2[C@@H]2[C@@H](C#N)N(C(=O)C3CC3)[C@@H]2CO)cc1`, with 1.11 ± 0.1.
Consider `CCS(=O)(=O)N1[C@H](C#N)[C@@H](c2ccc(C#Cc3ccccc3F)cc2)[C@H]1CO`, for which the viability index came to 1.05 ± 0.032.
For the compound `COc1ccc2c3c([C@@H](CO)NC[C@]33CCN(Cc4cc(on4)-c4ccccc4)CC3)n(C)c2c1`, the viability index came to 0.9102 ± 0.0072.
To `COc1ccccc1C(=O)Nc1ccc2c(c1)C(=O)N(C)C[C@H](OC)[C@@H](C)CN(C(C)=O)[C@H](C)CO2` belongs 0.968 ± 0.041.
The compound `O=C(Cc1ccccn1)N[C@H]1CC[C@@H](CCNS(=O)(=O)c2cccc(F)c2)O[C@@H]1CO` showed a viability index of 1.06 ± 0.069.
The compound `COCC#Cc1ccc([C@H]2[C@H](CO)N3CCCCN(C(=O)NC4CCCC4)C[C@@H]23)cc1` registered a viability index of 0.984 ± 0.04.
`Cn1cnc(CCNC(=O)C[C@H]2CC[C@@H]3[C@H](COC[C@H](O)CN3C(=O)Nc3ccc(C(F)(F)F)cc3)O2)c1` displayed a viability index of 1.1 ± 0.088.
For the compound `COc1cccc(CN2[C@H](CO)[C@H](c3ccccc3)C23CN(C(=O)C2CCCCC2)C3)c1`, the viability index turned out to be 1.12 ± 0.0075.
Then `Cc1cccc(-c2ccc([C@@H]3[C@@H]4CN(Cc5cccc(F)c5)C[C@H]3N4)cc2)c1`, with 0.816 ± 0.064; and `CC(C)NC(=O)N(C)C[C@H]1Oc2ccc(NC(=O)Cc3ccccc3)cc2CC(=O)N([C@H](C)CO)C[C@H]1C`, with 1.02 ± 0.014.
`Cc1noc(C)c1NC(=O)Nc1ccc2c(c1)C(=O)N([C@@H](C)CO)C[C@@H](C)[C@@H](CN(C)S(=O)(=O)c1cccs1)OCCCC[C@H](C)O2` returned a viability index of 1.05 ± 0.014.
In turn, `CO[C@H]1CN(C)C(=O)c2cc(NC(=O)C3CCCCC3)ccc2OC[C@H](C)N(Cc2cccnc2)C[C@@H]1C` gave a viability index of 1.03 ± 0.028.
For `CCC(=O)N1CC2(C1)[C@H](c1ccccc1)[C@H](CO)N2CC1CC1`, the viability index stood at 1.08 ± 0.048.
For the compound `CCS(=O)(=O)Nc1ccc2c(c1)C(=O)N(C)[C@H]1CC[C@@H](CC(=O)NCc3ccccc3F)O[C@H]1CO2`, the viability index was 1.17 ± 0.18.
`COc1ccc2c3c([C@@H](CO)N(C[C@]33CCN(CC3)S(=O)(=O)c3cccc(C)c3)C(=O)Nc3ccc(F)cc3)n(C)c2c1` registered a viability index of 0.998 ± 0.011.
`O=S(=O)(c1cccs1)N1CCCCN2[C@H](C1)[C@H](c1ccc(/C=C/c3ccccc3)cc1)[C@@H]2CO` yielded a viability index of 0.924 ± 0.016.
The compound `C[C@@H]1COCc2cn(nn2)CCCC(=O)N1` displayed a viability index of 1.004 ± 0.0086.
`CO[C@H](CN(C)C(=O)c1cnccn1)[C@H](C)CN([C@H](C)CO)S(=O)(=O)c1ccccc1` displayed a viability index of 0.948 ± 0.067.
As to `O=C(C[C@H]1CC[C@@H]2[C@H](COC[C@H](O)CN2Cc2cocn2)O1)N[C@@H]1CCN(Cc2ccccc2)C1`, the viability index came to 1.05 ± 0.038.
In turn, `O=C(CN1CCOCC1)N1CC(=O)N2[C@H](CO)[C@@H](c3ccc(-c4cccc(F)c4)cc3)[C@@H]2C1` showed a viability index of 1.01 ± 0.12.
In turn, `C[C@@H]1CCCCO[C@H](CN(C)C(=O)NC2CCCCC2)[C@@H](C)CN([C@@H](C)CO)C(=O)c2cc(N(C)C)ccc2O1` displayed a viability index of 1.12 ± 0.099.
As to `O=C(Cc1cccnc1)N1CC(=O)N2[C@H](C1)[C@@H](c1ccc(C#CC3CCCCC3)cc1)[C@@H]2CO`, the viability index is 0.985 ± 0.11.
In turn, `C[C@H](CO)N1C[C@H](C)[C@H](CN(C)S(=O)(=O)c2cn(C)cn2)Oc2ccc(NC(=O)C3CC3)cc2CC1=O` showed a viability index of 0.912 ± 0.032.
`C[C@@H](O)C#Cc1ccc([C@@H]2[C@H](CO)N3CCCCN(C(=O)c4ccc5c(c4)OCO5)C[C@@H]23)cc1`: the viability index turned out to be 1.018 ± 0.0019.
`COc1ccc(-c2ccccc2[C@@H]2[C@H](C#N)N(C(=O)c3cccnc3)[C@H]2CO)cc1` returned a viability index of 1.11 ± 0.099.
`O=C(C[C@H]1CC[C@H]2NC[C@@H](O)COC[C@@H]2O1)Nc1ccc(-c2ccccc2)cc1` came in with a viability index of 0.997 ± 0.036.
The compound `CC(=O)N1CC2(C1)[C@H](c1ccc(-c3ccc(F)cc3)cc1)[C@H](CO)N2CC1CC1` gave a viability index of 1.02 ± 0.021.
Turning to `CCC(=O)N1CC[C@@H]2[C@H]1c1cc(C#Cc3ccccc3F)ccc1N[C@@H]2CO`, the viability index amounted to 1.05 ± 0.035.
`O=C(C1CCCC1)N1CC2(C1)[C@@H](c1ccccc1)[C@@H](CO)N2Cc1ccc(Cl)cc1` had a viability index of 1.02 ± 0.084.
Compound `Cc1noc(C)c1NC(=O)Nc1ccc2c(c1)C(=O)N([C@@H](C)CO)C[C@@H](C)[C@H](CN(C)S(=O)(=O)c1cccs1)OCCCC[C@H](C)O2` registered a viability index of 0.928 ± 0.037.
Then `C[C@@H]1CN([C@@H](C)CO)C(=O)c2ccccc2-c2ccccc2CO[C@H]1CN(C)C(=O)[C@H](Cc1ccccc1)N(C)C`, with 1.06 ± 0.12; and `CNC[C@H]1OCc2cn(nn2)CCCC(=O)N([C@@H](C)CO)C[C@@H]1C`, with 1.05 ± 0.049; and `O=C(O)C[C@H]1C[C@@H]2c3cc(NC(=O)Nc4ccc(C(F)(F)F)cc4)ccc3O[C@@H]2[C@@H](CO)O1`, with 1.07 ± 0.042.
Compound `CC(=O)N1[C@H](CNC(=O)C2CC2)[C@@H](c2ccc(-c3ccccc3)cc2)[C@@H]1CO` displayed a viability index of 1.05 ± 0.017.
For the compound `CO[C@@H]1CN(C)C(=O)c2cc(NC(=O)Nc3ccccc3F)ccc2OC[C@H](C)N(CCC(F)(F)F)C[C@H]1C`, the viability index was found to be 1.02 ± 0.043.
`O=C(C[C@@H]1CC[C@@H]2[C@H](COC[C@H](O)CN2C(=O)c2ccccc2F)O1)NCc1ccc(Cl)c(Cl)c1`: the viability index came out at 1.02 ± 0.012.
To `O=C(N[C@H]1C=C[C@H](CC(=O)N2CCN(c3ccccc3)CC2)O[C@H]1CO)c1ccccc1` belongs 1.15 ± 0.086; to `C[C@H](CO)N1C[C@H](C)[C@H](CN(C)CC2CC2)OCCCC[C@H](C)Oc2ccc(NC(=O)c3ccccc3)cc2C1=O`, 1.06 ± 0.034.
Then `COc1ccc2c3c([nH]c2c1)[C@@H](CO)N(C[C@]31CN(C1)C(=O)Nc1cccc(F)c1)C(=O)NC1CCCC1`, with 1.05 ± 0.061; and `OC[C@H]1Nc2ccc(-c3cccc(F)c3)cc2[C@H]2[C@@H]1CCN2Cc1ccc(F)cc1`, with 1.03 ± 0.058.
In turn, `O=C(C[C@@H]1CC[C@H]2[C@@H](COC[C@@H](O)CN2Cc2ccc3c(c2)OCO3)O1)N1CCCCC1` registered a viability index of 0.9874 ± 0.0033.
With `COc1cccc(C(=O)Nc2ccc3c(c2)C(=O)N(C)[C@H]2CC[C@H](CC(=O)N[C@H](C)c4ccccc4)O[C@H]2CO3)c1`, the viability index worked out at 0.9936 ± 0.0046.
